Assay results published in the supplement of paper PMC10126150.
Sequences with one replicate were seen in a single cluster, so their values are uncertain.

tested on: ATP; experiment: switch fluorescence ratio, 500 uM ATP over buffer (Cy3 cluster intensity, sum of 5 cycles each) (fold (ratio)); higher = stronger signal-on switching upon ATP binding; sequences stand for … in TCGTCGGCAGCGTCAGATGTGTATAAGAGACAGTTTTTTTTTTTTTTTTTTTTTTTTT…TC; conditions: aptamer strand: ATP DNA aptamer (quencher-CACCTGGGGGAGTATTGCGGAGGAAGG + anchor), 100 nM annealed; ATP concentration: 500 uM; one replicate
How it was run: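 Values give the fluorescence ratio for each switch-domain sequence, averaged from per-cluster ratios of summed target-cycle to summed buffer-cycle Cy3 intensity. The Cy3-labelled switching-strand clusters sat on a modified Illumina MiSeq flow-cell, were annealed to 100 nM quencher-labelled ATP aptamer, and were imaged in selection buffer, then after 15 min with 500 uM ATP at 22 °C. Five cycles ran with NaOH stripping and re-annealing between them, and clusters outside 100-1000 RFU were excluded.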
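Note: ATP exposure 15 min at 22 °C before imaging.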

Row | Sequence | switch fluorescence ratio
1 | ATTGATTTCG | 1.01
2 | ATTGCAGAGG | 0.983
3 | ATTGCAGCGC | 0.99
4 | ATTGCCAATA | 0.955
5 | ATTGCCGGCG | 0.96
6 | ATTGCCGGTA | 1.02
7 | ATTGCGACGC | 1.25
8 | ATTGGAAGAG | 1.03
9 | ATTGGAAGTC | 1.02
10 | ATTGGATCG | 0.964
11 | ATTGGCCTGA | 1
12 | ATTGGCGA | 1.02
13 | ATTGGCGACA | 0.955
14 | ATTGGCTCCT | 1.03
15 | ATTGGGAGCT | 1.02
16 | ATTGGGGTGA | 0.999
17 | ATTGGTAATC | 1.02
18 | ATTGGTCGTG | 1.06
19 | ATTGGTGATG | 0.982
20 | ATTGGTTGAC | 0.989
21 | ATTGTAACAT | 1.02
22 | ATTGTACTCA | 1
23 | ATTGTAGAA | 0.964
24 | ATTGTAGCTA | 0.988
25 | ATTGTATATG | 1.01
26 | ATTGTCATAC | 1.08

Row | Sequence | switch fluorescence ratio
27 | ATTGTCATTA | 0.973
28 | ATTGTCGAGG | 1.05
29 | ATTGTGACAT | 0.994
30 | ATTGTGACGG | 1.01
31 | ATTGTGCGTT | 0.979
32 | ATTGTTATGC | 1.02
33 | ATTGTTTGTG | 0.972
34 | ATTTAACACC | 1.12
35 | ATTTAACGCT | 0.968
36 | ATTTAAGGC | 1.04
37 | ATTTACAACT | 1.1
38 | ATTTACGCAC | 1.83
39 | ATTTACTTTA | 1.07
40 | ATTTAGCGTA | 1.07
41 | ATTTAGCTT | 1.04
42 | ATTTATGCC | 1.07
43 | ATTTCAACAG | 1.03
44 | ATTTCAAGCC | 1.04
45 | ATTTCACACG | 1.04
46 | ATTTCACGCC | 1.43
47 | ATTTCAGGCC | 1
48 | ATTTCATGAT | 0.979
49 | ATTTCCAGGA | 1.01
50 | ATTTCCTAGA | 0.987
51 | ATTTGAAGAC | 1.05
52 | ATTTGCGGCC | 0.991

Row | Sequence | switch fluorescence ratio
53 | ATTTGGCATG | 1
54 | ATTTGGCCAA | 1.01
55 | ATTTGGGATT | 0.993
56 | ATTTGTCGGG | 0.961
57 | ATTTGTGACT | 0.995
58 | ATTTGTGCTC | 0.973
59 | ATTTGTTAG | 1
60 | ATTTTAACC | 0.961
61 | ATTTTAGTTC | 1.01
62 | ATTTTCAGC | 0.998
63 | ATTTTCGCGA | 2.21
64 | ATTTTCTAAT | 0.969
65 | ATTTTCTAGC | 0.984
66 | ATTTTGCACC | 1.01
67 | ATTTTTGACT | 1.01
68 | ATTTTTTCGG | 0.959
69 | CAAAACGTGT | 0.963
70 | CAAAAGGCTC | 1.21
71 | CAAAAGTCGC | 0.966
72 | CAAAATCGAG | 1.02
73 | CAAAATGGCC | 1.06
74 | CAAACCTTGC | 2.97
75 | CAAACGTCT | 0.993
76 | CAAACTCTT | 1
77 | CAAACTCTTG | 1
78 | CAAACTGACA | 1.09

Row | Sequence | switch fluorescence ratio
79 | CAAAGAAGAT | 0.984
80 | CAAAGATCGC | 1
81 | CAAAGCCTAT | 0.999
82 | CAAAGCGCGT | 1.05
83 | CAAAGGATTG | 1.01
84 | CAAAGGGG | 1.07
85 | CAAAGGTGTA | 1.03
86 | CAAAGTATAA | 0.99
87 | CAAATAAATC | 0.972
88 | CAAATAGGAT | 0.979
89 | CAAATCCCAT | 0.995
90 | CAAATGAAG | 0.979
91 | CAAATGAAT | 1
92 | CAAATGCTCA | 1.03
93 | CAAATGGCGT | 1.03
94 | CAAATGGGCG | 0.994
95 | CAAATTCCGA | 1.07
96 | CAAATTCGGA | 1.01
97 | CAAATTTGAG | 1.01
98 | CAACAAGGTT | 0.993
99 | CAACAGAGCC | 1.02
100 | CAACCATTT | 1.03
101 | CAACCCATAA | 1.01
102 | CAACCCGCTT | 1.28
103 | CAACCCGGCG | 1.04
104 | CAACCGGCTA | 1.2

Row | Sequence | switch fluorescence ratio
105 | CAACCGGTGC | 1.44
106 | CAACCGTACA | 1.51
107 | CAACCTCAAG | 1.07
108 | CAACGCCTGA | 1.03
109 | CAACGCGGCG | 0.944
110 | CAACGCTAAT | 2.49
111 | CAACGGGATG | 0.994
112 | CAACGGTACA | 1.37
113 | CAACTCACGG | 1.46
114 | CAACTCCTAA | 1.06
115 | CAACTGAGCG | 1.05
116 | CAACTTAAAA | 1.01
117 | CAACTTACGT | 1.3
118 | CAACTTGCGG | 1.03
119 | CAAGAACGGG | 1.01
120 | CAAGACAATC | 1.24
121 | CAAGACCGTC | 1.1
122 | CAAGACTTAC | 1.32
123 | CAAGAGGCCT | 1
124 | CAAGAGTATA | 0.96
125 | CAAGATGTTC | 1.01
126 | CAAGCGACTG | 1.03
127 | CAAGCGTAAA | 1
128 | CAAGGCTCGG | 1.06
129 | CAAGGGCTAG | 1.03
130 | CAAGGGTGGG | 0.982

Row | Sequence | switch fluorescence ratio
131 | CAAGGGTTT | 0.994
132 | CAAGGTACAG | 1.08
133 | CAAGGTGAAT | 1.01
134 | CAAGGTGTAG | 1.03
135 | CAAGGTGTCT | 0.991
136 | CAAGGTTTTC | 1
137 | CAAGTAAAAC | 1.06
138 | CAAGTACGAA | 1.12
139 | CAAGTAGAAC | 1.08
140 | CAAGTCCAGC | 1.04
141 | CAAGTCTTAA | 1.05
142 | CAAGTGGTTC | 0.981
143 | CAAGTTAGAA | 1.01
144 | CAAGTTATCA | 0.972
145 | CAAGTTGGAT | 0.996
146 | CAAGTTGGGA | 0.94
147 | CAAGTTGGTA | 0.988
148 | CAAGTTGTCC | 1.03
149 | CAAGTTGTT | 0.959
150 | CAAGTTTGAC | 1.02
151 | CAATAAACCG | 1.12
152 | CAATAAATGT | 1.05
153 | CAATAACGT | 1.01
154 | CAATAAGGGT | 1.04
155 | CAATACGAGA | 1.3
156 | CAATACGCCA | 1.85

Row | Sequence | switch fluorescence ratio
157 | CAATAGACTC | 1.05
158 | CAATATCAGC | 1.02
159 | CAATATGAAA | 1.03
160 | CAATATGAAG | 0.996
161 | CAATCCACG | 1.05
162 | CAATCGGGTC | 0.956
163 | CAATCTATGG | 0.999
164 | CAATCTATTA | 0.997
165 | CAATCTCCTA | 1.11
166 | CAATGAGATA | 1.01
167 | CAATGATCTA | 0.967
168 | CAATGGCCTT | 1.04
169 | CAATGGGAAC | 0.992
170 | CAATGGGAAT | 0.983
171 | CAATTAATGC | 1.03
172 | CAATTACTCG | 1.1
173 | CAATTCCGT | 1.15
174 | CAATTTTAAA | 0.978
175 | CAATTTTCCA | 1.04
176 | CACAACGTAG | 1.02
177 | CACAAGTGG | 0.98
178 | CACAATTCTG | 1.02
179 | CACACATGTT | 1.05
180 | CACACGAGCG | 0.976
181 | CACACTATGC | 1.13
182 | CACAGACATG | 1.05

Row | Sequence | switch fluorescence ratio
183 | CACAGGCTTT | 0.957
184 | CACAGTAGAA | 1.04
185 | CACAGTCGGC | 1.07
186 | CACAGTTGCG | 0.999
187 | CACATAATCG | 1.05
188 | CACATAGCAA | 2.06
189 | CACATAGCAC | 1.24
190 | CACATAGTCG | 1.02
191 | CACATATCGT | 1.12
192 | CACATCAATA | 1.06
193 | CACATCCTA | 1.05
194 | CACATGCCGT | 0.936
195 | CACATGCGAT | 1.02
196 | CACATGCTGA | 1
197 | CACATGGGTC | 1.04
198 | CACATTAATA | 1.07
199 | CACATTCTGT | 1.01
200 | CACCAAATGC | 1.99
201 | CACCAAGCAT | 1.19
